Assay results as given in the supplement of paper PMC11741623.
The list shows a part of the results. Interaction screen of human proteins with wild-type SARS-CoV-2 proteins by split-DHFR complementation in yeast, 1 µg/mL methotrexate. Value = fitness of the pair (three or more lineages) minus that of the viral protein without a human partner, on a scale set by negative (0) and fused positive (1) controls, mean of up to three cultures; higher = more likely to interact. Active = false discovery rate below 0.05 (one-sided t-test) in at least one culture. Nearly all pairs are not hits, and differences among them are mostly noise (correlation between cultures about 0.3); most hits were seen in one culture only. Human sequences are the Swiss-Prot entries looked up by gene name; the clone may be another isoform. NSP2 values were corrected by the authors for a growth advantage. Listed are human proteins with a hit and a random twelfth of the others.

Tests used:
Assay in all cases: yeast fitness gain over the viral ORF with no human partner (scaled fitness); higher = more likely to interact
SARS-CoV-2 M = biological target: SARS-CoV-2 M
Experimental: (§1)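 Split mouse DHFR complementation in pooled diploid yeast: human ORFeome clones carry one fragment and viral ORFs the other; barcoded lineages compete in 1 µg/mL methotrexate and fitness is read by barcode sequencing in up to three cultures.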

SARS-CoV-2 NSP10 = biological target: SARS-CoV-2 NSP10
Experimental: as §1

SARS-CoV-2 NSP12 = biological target: SARS-CoV-2 NSP12
Experimental: as §1

SARS-CoV-2 NSP13 = biological target: SARS-CoV-2 NSP13
Experimental: as §1

SARS-CoV-2 NSP2 = biological target: SARS-CoV-2 NSP2
Experimental: as §1

SARS-CoV-2 NSP6 = biological target: SARS-CoV-2 NSP6
Experimental: as §1

SARS-CoV-2 NSP7 = biological target: SARS-CoV-2 NSP7
Experimental: as §1

SARS-CoV-2 NSP8 = biological target: SARS-CoV-2 NSP8
Experimental: as §1

SARS-CoV-2 ORF10 = biological target: SARS-CoV-2 ORF10
Experimental: as §1

SARS-CoV-2 ORF3A = biological target: SARS-CoV-2 ORF3A
Experimental: as §1

SARS-CoV-2 ORF3B = biological target: SARS-CoV-2 ORF3B
Experimental: as §1

SARS-CoV-2 ORF8 = biological target: SARS-CoV-2 ORF8
Experimental: as §1

SARS-CoV-2 ORF9B = biological target: SARS-CoV-2 ORF9B
Experimental: as §1

SARS-CoV-2 NSP15 = biological target: SARS-CoV-2 NSP15
Experimental: as §1

SARS-CoV-2 NSP5 = biological target: SARS-CoV-2 NSP5
Experimental: as §1

SARS-CoV-2 ORF6 = biological target: SARS-CoV-2 ORF6
Experimental: as §1

SARS-CoV-2 ORF7A = biological target: SARS-CoV-2 ORF7A
Experimental: as §1

SARS-CoV-2 ORF7B = biological target: SARS-CoV-2 ORF7B
Experimental: as §1

[1] = biological target: SARS-CoV-2 ORF9Bwu (the 73-codon ORF)
Experimental: as §1

SARS-CoV-2 S = biological target: SARS-CoV-2 S
Experimental: as §1

SARS-CoV-2 NSP1 = biological target: SARS-CoV-2 NSP1
Experimental: as §1

SARS-CoV-2 NSP9 = biological target: SARS-CoV-2 NSP9
Experimental: as §1

Measured: yeast fitness gain

B1: HS3ST3B1, Q9Y662 (protein)
chain: MGQRLSGGRSCLDVPGRLLPQPPPPPPPVRRKLALLFAMLCVWLYMFLYSCAGSCAAAPGLLLLGSGSRAAHDPPALATAPDGTPPRLPFRAPPATPLASGKEMAEGAASPEEQSPEVPDSPSPISSFFSGSGSKQLPQAIIIGVKKGGTRALLEFLRVHPDVRAVGAEPHFFDRSYDKGLAWYRDLMPRTLDGQITMEKTPSYFVTREAPARISAMSKDTKLIVVVRDPVTRAISDYTQTLSKRPDIPTFESLTFKNRTAGLIDTSWSAIQIGIYAKHLEHWLRHFPIRQMLFVSGERLISDPAGELGRVQDFLGLKRIITDKHFYFNKTKGFPCLKKAEGSSRPHCLGKTKGRTHPEIDREVVRRLREFYRPFNLKFYQMTGHDFGWD
inactive: SARS-CoV-2 M -0.0878 | SARS-CoV-2 NSP10 = -0.0771 | SARS-CoV-2 NSP12 = -0.416 | SARS-CoV-2 NSP13 = -0.0864 | SARS-CoV-2 NSP2 = -0.218 | SARS-CoV-2 NSP6 = -0.0644 | SARS-CoV-2 NSP7 = 0.0293 | SARS-CoV-2 NSP8 = -0.00425 | SARS-CoV-2 ORF10 = -0.151 | SARS-CoV-2 ORF3A -0.429 | SARS-CoV-2 ORF3B 0.0379 | SARS-CoV-2 ORF8 = 0.0732 | SARS-CoV-2 ORF9B -0.0661

B2: INTU, Q9ULD6 (protein)
chain: MASVASCDSRPSSDELPGDPSSQEEDEDYDFEDRVSDSGSYSSASSDYDDLEPEWLDSVQKNGELFYLELSEDEEESLLPETPTVNHVRFSENEIIIEDDYKERKKYEPKLKQFTKILRRKRLLPKRCNKKNSNDNGPVSILKHQSNQKTGVIVQQRYKDVNVYVNPKKLTVIKAKEQLKLLEVLVGIIHQTKWSWRRTGKQGDGERLVVHGLLPGGSAMKSGQVLIGDVLVAVNDVDVTTENIERVLSCIPGPMQVKLTFENAYDVKRETSHPRQKKTQSNTSDLVKLLWGEEVEGIQQSGLNTPHIIMYLTLQLDSETSKEEQEILYHYPMSEASQKLKSVRGIFLTLCDMLENVTGTQVTSSSLLLNGKQIHVAYWKESDKLLLIGLPAEEVPLPRLRNMIENVIQTLKFMYGSLDSAFCQIENVPRLDHFFNLFFQRALQPAKLHSSASPSAQQYDASSAVLLDNLPGVRWLTLPLEIKMELDMALSDLEAADFAELSEDYYDMRRLYTILGSSLFYKGYLICSHLPKDDLIDIAVYCRHYCLLPLAAKQRIGQLIIWREVFPQHHLRPLADSSTEVFPEPEGRYFLLVVGLKHYMLCVLLEAGGCASKAIGSPGPDCVYVDQVKTTLHQLDGVDSRIDERLASSPVPCLSCADWFLTGSREKTDSLTTSPILSRLQGTSKVATSPTCRRTLFGDYSLKTRKPSPSCSSGGSDNGCEGGEDDGFSPHTTPDAVRKQRESQGSDGLEESGTLLKVTKKKSTLPNPFHLGNLKKDLPEKELEIYNTVKLTSGPENTLFHYVALETVQGIFITPTLEEVAQLSGSIHPQLIKNFHQCCLSIRAVFQQTLVEEKKKGLNSGDHSDSAKSVSSLNPVKEHGVLFECSPGNWTDQKKAPPVMAYWVVGRLFLHPKPQELYVCFHDSVTEIAIEIAFKLFFGLTL
inactive: SARS-CoV-2 M -0.134 | SARS-CoV-2 NSP10 = 0.0554 | SARS-CoV-2 NSP12 = 0.109 | SARS-CoV-2 NSP13 = -0.0886 | SARS-CoV-2 NSP15 = -0.00152 | SARS-CoV-2 NSP2 = -0.117 | SARS-CoV-2 NSP5 = -8.1e-05 | SARS-CoV-2 NSP6 = -0.00921 | SARS-CoV-2 ORF10 = -0.132 | SARS-CoV-2 ORF3B -0.0179 | SARS-CoV-2 ORF6 = -0.0634 | SARS-CoV-2 ORF7A 0.146 | SARS-CoV-2 ORF7B -0.0596 | SARS-CoV-2 ORF8 = -0.0986 | SARS-CoV-2 ORF9B -0.0577 | [1] 0.088 | SARS-CoV-2 S 0.232

B3: KIAA0895, Q8NCT3 (protein)
chain: MAGCTRKLTHLRKRIHRPRRRTTRRWKRWFKFRKRKGEKRPRPNHKAVARRAKLKFSTSEKLHWPEQELAKKSILNAEDSLIIDNKRSISHLSSGVLKDIFTTGTSSYNVLLQSKEEKKYHSQKQSSSTYSKRCRKPSKSPNTSRSKDPRRMKALVPVTSSGTWYCLERRPAVFVTSSVSSPVKFTHDISVTGNGIVLPPKPKSKVKWCHFSTLPKPKPQLSRSFEKGDDFSGKKFCILTAIKPTNLEKEKLRFFKSDYTYNPQFEYANPALPSVLAKHSHASDRFLKQIVVHLTEDLLSRASMTVVNGCPTLTINVSTAREHWLEGMLRHEIGTHYFRGINNLQQPWNSWTGRKKHELKPNNPTEEGLASIHSVLFRKDPFLWRAALLYYTVYQASQMSFCELFKDIGRFVKDPNTRWDYCVRAKRGWTDTSQPGCFSKDQVYLDGILQILRYRDTIDFHLLTALGKVSYEDVDRLKGLAVTENMRVPHFLQDHGRYMEHLEKIMEVNELTDRELKDLI
inactive: SARS-CoV-2 M -0.0635 | SARS-CoV-2 NSP10 = -0.021 | SARS-CoV-2 NSP2 = -0.473 | SARS-CoV-2 NSP5 = 0.025 | SARS-CoV-2 NSP8 = -0.517 | SARS-CoV-2 ORF10 = 0.0688 | SARS-CoV-2 ORF6 = -0.0182 | SARS-CoV-2 ORF8 = -0.0359 | SARS-CoV-2 ORF9B 0.00753 | SARS-CoV-2 S -0.284

B4: MUC20, Q8N307 (protein)
chain: MGCLWGLALPLFFFCWEVGVSGSSAGPSTRRADTAMTTDDTEVPAMTLAPGHAALETQTLSAETSSRASTPAGPIPEAETRGAKRISPARETRSFTKTSPNFMVLIATSVETSAASGSPEGAGMTTVQTITGSDPREAIFDTLCTDDSSEEAKTLTMDILTLAHTSTEAKGLSSESSASSDSPHPVITPSRASESSASSDGPHPVITPSRASESSASSDGPHPVITPSRASESSASSDGPHPVITPSRASESSASSDGPHPVITPSRASESSASSDGPHPVITPSRASESSASSDGPHPVITPSRASESSASSDGPHPVITPSRASESSASSDGPHPVITPSRASESSASSDGLHPVITPSRASESSASSDGPHPVITPSRASESSASSDGPHPVITPSWSPGSDVTLLAEALVTVTNIEVINCSITEIETTTSSIPGASDTDLIPTEGVKASSTSDPPALPDSTEAKPHITEVTASAETLSTAGTTESAAPDATVGTPLPTNSATEREVTAPGATTLSGALVTVSRNPLEETSALSVETPSYVKVSGAAPVSIEAGSAVGKTTSFAGSSASSYSPSEAALKNFTPSETPTMDIATKGPFPTSRDPLPSVPPTTTNSSRGTNSTLAKITTSAKTTMKPPTATPTTARTRPTTDVSAGENGGFLLLRLSVASPEDLTDPRVAERLMQQLHRELHAHAPHFQVSLLRVRRG
inactive: SARS-CoV-2 M -0.0653 | SARS-CoV-2 NSP1 = 0.00207 | SARS-CoV-2 NSP10 = 0.00439 | SARS-CoV-2 NSP12 = -0.0749 | SARS-CoV-2 NSP13 = -0.0186 | SARS-CoV-2 NSP2 = -0.0468 | SARS-CoV-2 NSP5 = 0.0518 | SARS-CoV-2 NSP6 = 0.0568 | SARS-CoV-2 NSP8 = -0.0869 | SARS-CoV-2 NSP9 = -0.0809 | SARS-CoV-2 ORF3B -0.0612 | SARS-CoV-2 ORF6 = -0.076 | SARS-CoV-2 ORF7B -0.0954 | SARS-CoV-2 ORF8 = 0.0732 | SARS-CoV-2 ORF9B -0.041 | SARS-CoV-2 S -0.337
